The values below come from PMC12040169 (PLOS Biology, 2025).

This is one part of the list.

The subject of the test is T1, C. trachomatis L2/434/Bu expressing GFP (CTL2-GFP).
T1 construct: L2/434/Bu GFP intracellular growth in HeLa cells
The arrangement: species or system HeLa; C. trachomatis total inclusion area by high-content imaging, normalised to DMSO. Particulars: total inclusion area; 28.5 h, 10 µM; inhibitor. In short, it runs like this: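 Bulk GFP and resorufin signals were read first. Wells were then fixed, stained with Hoechst and imaged to detect GFP inclusions and host nuclei. MICs followed the previously described calculation.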
As to `COc1ccc(-c2nc(NC(=O)CSc3nnc(C)s3)ns2)cc1` [CBK267290], the “% of control remaining” value is given as 98.6266.
As to `CCCc1cc(=O)oc2cc(OCC(=O)OC(C)C)c(Cl)cc12` [CBK264459], the “% of control remaining” value worked out at 109.832.
The figure for `CCN(c1ccc(NC(=O)Cn2nc(C(=O)O)c3ccccc3c2=O)cc1)C(C)C` [CBK297734] is 84.9254; for `O=C(N[C@H]1CO[C@H]2[C@@H]1OC[C@@H]2n1nnnc1-c1ccccc1)c1ccccc1` [CBK289482] it is 84.4962; for `COc1ccc(O)c(C(=O)c2cnn(-c3ccc(Cl)c(C(=O)O)c3)c2)c1` [CBK297914] it is 112.306.
As for `CN1C(=O)CC2(C1=O)C(=O)N(Cc1ccccc1)c1ccc(F)cc12` (stereo not drawn) [CBK075163], the figure is 90.768; as for `O=C1NC(=O)C(CCCCN2CCC3(CCN(C(=O)c4cc(F)c(F)cc4F)C3)C2)N1` (stereo not drawn) [CBK132147], 91.2849.
As for `Cc1nn(-c2ccccc2)c(CN2C(=O)NC3(CCCC3)C2=O)c1C#N` [CBK305572], the figure is 80.6662.
For `Cc1ccc(S(=O)(=O)Nc2nc3ccc(S(=O)(=O)N4CCOCC4)cc3s2)cc1` [CBK266988], the “% of control remaining” value was found to be 119.938.
Take `CCOc1ccc(-c2ccnc(NCC(C)(C)CO)n2)cc1C(=O)O` [CBK307530]: the “% of control remaining” value was determined as 47.6214.
As for `NC1=C(c2nc3ccccc3s2)C(=O)CN1CCN1CCOCC1` [CBK265946], the figure is 81.957; as for `O=C(O)c1cccc(NC(=S)NC(=O)c2cccnc2)c1` [CBK265739], 103.833.
The figure for `COC(=O)c1c(C)[nH]c(C(=O)CSc2ncnc3scc(-c4ccccc4)c23)c1C` [CBK265918] is 90.829; for `CCOC(=O)N1CCCC(=O)c2c(C(=O)O)cn(C)c21` [CBK005301] it is 75.1633; for `CC(C)(C)c1ccc(-c2nc3ncccc3cc2N)cc1` [CBK067611] it is 107.224.
The figure for `O=C(c1cc(F)cc(F)c1)N1CC[C@@H](c2ccccc2)[C@H](O)C1` [CBK283715] is 84.3556.
Consider `CC1Cc2ccccc2N1C(=O)CSc1nnc(N)s1` (stereo not drawn) [CBK269530], for which the “% of control remaining” value is 118.842.
As for `Cc1ccc(O)c(NC(=O)c2nc3nc(C)cc(C(F)F)n3n2)c1` [CBK266186], the figure is 108.769; as for `CCNC(=O)N1CC2(CCN(Cc3ccc(OC(F)(F)F)cc3)CC2)c2ccccc21` [CBK126688], 85.3922; as for `O=C(COc1ccc2ccccc2c1Br)NCc1ccccn1` [CBK267361], 116.306.
Take `O=C(COc1ccc2ccccc2c1)Nc1cc([N+](=O)[O-])ccc1F` [CBK263780]: the “% of control remaining” value is recorded as 103.07.
With `Cc1ccc(CCC(=O)Nc2ccc(S(N)(=O)=O)cc2)o1` [CBK269031], the “% of control remaining” value is recorded as 90.9053.
As for `CNC(=O)C1(Cc2ccc(-c3cccc(C)c3)cc2)CCN(C(=O)CC(C)(C)C)CC1` [CBK285923], the figure is 125.827; as for `CNC(=O)CN(C)C(=O)c1coc(COc2ccc3sc(C)nc3c2)n1` [CBK307571], 38.7436; as for `CCCC(NC(=O)Nc1ccnn1CC(C)C)c1nccn1C` (stereo not drawn) [CBK307444], 82.5559.
In the case of `COc1ccc(S(=O)(=O)N2CCOCC2)cc1C(=O)N1CCCC(C)C1` (stereo not drawn) [CBK305011], the “% of control remaining” value worked out at 69.194.
The figure for `O=C(O)CN(CC(=O)O)S(=O)(=O)c1ccc(Cl)cc1` [CBK261526] is 90.6396.
As for `CCOc1ccccc1NC(=O)c1ccc(CS(=O)(=O)c2ccc(C)cc2)cc1` [CBK268572], the figure is 115.866; as for `COc1ccc2c(c1)c(C)c(C(=O)NC(C)Cc1ccccn1)n2C` (stereo not drawn) [CBK281425], 108.106.
Take `O=C(O)CCCC(=O)OCc1ccco1` [CBK260933]: the “% of control remaining” value came out at 81.0397.
Turning to `CCN(CC)S(=O)(=O)c1cc(S(=O)(=O)N(CC)CC)c2cccc3c2c1NC(=O)O3` [CBK005022], the “% of control remaining” value turned out to be 82.1762.
For the compound `COCc1[nH]nc(O)c1Cc1c(Cl)cccc1Cl` [CBK105305], the “% of control remaining” value stood at 104.508.
Turning to `CCC(CO)Nc1cncc(-c2cccc(N)c2)n1` (stereo not drawn) [CBK065278], the “% of control remaining” value stood at 118.068.
In the case of `COc1cccc([C@H]2CN(C(=O)c3ccccc3)[C@@H]3CCN(Cc4ccccc4)C[C@H]23)c1` [CBK285624], the “% of control remaining” value came to 89.0989.
With `c1ccc(CSc2ncnc3c2oc2ccccc23)cc1` [CBK287398], the “% of control remaining” value is reported as 109.528.
Take `CC(NC(=O)CCc1ccncc1)c1nc2ccccc2s1` (stereo not drawn) [CBK281666]: the “% of control remaining” value was determined as 81.7864.
As for `CC(C)S(=O)(=O)n1ccn(-c2ccc(Oc3ccccc3)cc2)c1=O` [CBK106644], the figure is 89.5265; as for `CC(C)n1c(=O)n(CC(=O)N2CCCCC2)c2cccnc21` [CBK283526], 100.925; as for `COc1ccc2[nH]cc(CCNC(=O)c3ccc(C)nc3N3CCOCC3)c2c1` [CBK106203], 103.807.
The figure for `CN(CC(O)CO)C(=O)c1coc(COc2cccc(F)c2)n1` (stereo not drawn) [CBK306854] is 99.6374; for `COCC(=O)NC(C)c1nc2ccccc2n1Cc1ccccc1C` (stereo not drawn) [CBK269885] it is 106.604.
Regarding `COc1ccc(-c2cnc(NCC3CC3)c(C(=O)N3CCN(C)CC3)c2)cc1` [CBK076327], the “% of control remaining” value turned out to be 88.9597.
Regarding `O=C(CSc1nnc(-c2ccc(Cl)cc2Cl)[nH]1)Nc1ccc(F)cc1` [CBK267651], the “% of control remaining” value was 112.484.
`O=C(c1ccc2[nH]ccc2c1)N1CCN(CC2CCOC2)CC1` (stereo not drawn) [CBK304866]: the “% of control remaining” value is given as 50.9733.
The figure for `FC(F)(F)c1nc2ccccc2nc1Sc1nc[nH]n1` [CBK093808] is 95.1732; for `CCCNc1nc(-c2ccc(C)c(C)c2)cn2ccnc12` [CBK066627] it is 99.6063; for `CC1=C(C)CC(C(=O)Nc2ccc3c(c2)oc2ccccc23)C(C(=O)O)C1` (stereo not drawn) [CBK263533] it is 103.009.
As for `CCCC(=O)c1ccc(S(=O)(=O)N2CCCN(Cc3cccc4cccnc34)CC2)cc1` [CBK062909], the figure is 93.5189.
The figure for `O=C1COc2ccccc2C(=O)N[C@@H]2CCOC[C@@H]2C/C=C/C[C@H]2[C@H](CCCN2CCO)N1` [CBK292149] is 94.3903; for `O=C(NCC1(c2ccccc2)CCCC1)c1ccc(=O)n(CC(=O)N2CCCCC2)c1` [CBK286082] it is 107.235.
Regarding `Cc1noc(C)c1NC(=O)c1c(C)noc1C` [CBK200305], the “% of control remaining” value is on record as 106.134.
As for `O=C(c1c[nH]c2ccccc12)C(O)C(c1ccccc1)N1CCCCC1` (stereo not drawn) [CBK267799], the figure is 96.0648; as for `Cc1cc(C)n2nc(NC(=O)C(C)Oc3ccccc3)nc2n1` (stereo not drawn) [CBK270039], 72.8197.
In the case of `Clc1ccc(COc2nccnc2OCc2cccnc2N2CCOCC2)cc1Cl` [CBK161610], the “% of control remaining” value is recorded as 76.7912.
With `CC1(C)CN(Cc2cccc(-c3ccccn3)c2)CCS1(=O)=O` [CBK304284], the “% of control remaining” value was 73.0179.
The figure for `Cc1nn(C)c(Cl)c1S(=O)(=O)Nc1ccc2nsnc2c1` [CBK062222] is 113.704; for `O=C(CSc1nc2ccccc2s1)OCC(=O)c1cccc([N+](=O)[O-])c1` [CBK262361] it is 92.022.
As for `COc1cccc(CN2CCC3(C2)c2[nH]c4ccccc4c2CCN3Cc2cccc(OC)c2)c1` (stereo not drawn) [CBK059468], the figure is 72.6126; as for `O=C(c1nccs1)C1CCN(C(=O)Cc2cccc(F)c2)CC1` [CBK284208], 108.893.
For the compound `O=C(Nc1ccccc1O)c1ccc2c(c1)C(=O)N(c1ccc(Sc3ccc([N+](=O)[O-])cc3)cc1)C2=O` [CBK262092], the “% of control remaining” value is recorded as 89.9847.
As for `CC1=C[C@@H](CNC(=O)c2cccnc2)[C@H](C(C)C)C[C@H]1CC(=O)N1CCCC1` [CBK289055], the “% of control remaining” value came out at 96.2677.
The figure for `COCCNC(=O)c1ccc(-c2ccccc2OC)nc1NCC1CC1` [CBK106246] is 87.3047; for `FC(F)(F)c1ccc(CN2CCN(c3nccnc3OCCN3CCOCC3)CC2)cc1` [CBK082890T] it is 85.8796; for `COc1cc2c(cc1OC)C1c3ccccc3N(Cc3ccccc3)C(=O)N1CC2` (stereo not drawn) [CBK286192] it is 86.5316.
The figure for `O=C(Cn1cc(C(=O)NC2(c3ccccc3)CCCC2)ccc1=O)NCc1ccc(F)cc1` [CBK286027] is 96.377; for `C[C@H](Nc1cncc(-c2ccc3c(c2)OCO3)n1)c1ccccc1` [CBK065962] it is 136.783; for `COc1ccccc1CCCNC(=O)c1csc(C(C)=O)c1` [CBK282513] it is 86.2942.
The figure for `Cc1ccc(N2CCCC2=O)cc1S(=O)(=O)NC1C2CCCCC21` (stereo not drawn) [CBK282840] is 118.223; for `O=C(NC1CCCOC1)C1CCN(Cc2ccccc2Cl)CC1` (stereo not drawn) [CBK282520] it is 133.039; for `CCC(C)(C)c1ccc(S(=O)(=O)N2CCN(CCCC#N)CC2)cc1` [CBK063134] it is 80.7376.
Take `COc1ccc(S(=O)(=O)N(C)CC(=O)Nc2ccc(S(N)(=O)=O)cc2)cc1` [CBK265922]: the “% of control remaining” value is on record as 79.3216.
As for `COCc1nc(CN2CCNC(=O)C2c2ccccc2C(F)(F)F)no1` (stereo not drawn) [CBK304157], the figure is 45.8316; as for `CCOC(=O)c1cnc(SCc2cccc([N+](=O)[O-])c2)nc1N` [CBK266449], 116.809.
Consider `Cc1noc2nc(C3CCCN(C(=O)C4CC4)C3)cc(C(F)F)c12` (stereo not drawn) [CBK284608], for which the “% of control remaining” value is given as 102.752.
With `c1ccc(OCCOc2nccnc2-c2ccsc2)cc1` [CBK106773], the “% of control remaining” value turned out to be 74.1886.
As for `Cc1nc(-c2ccccc2)sc1C(=O)C1=C(O)C(=O)N(CCN2CCOCC2)C1c1cccs1` (stereo not drawn) [CBK266520], the figure is 125.451; as for `c1ccc2c(CN3CCCNCC3)cccc2c1` [CBK028773], 36.2979; as for `CN1CCN(C(=O)CN(c2cccc([N+](=O)[O-])c2)S(=O)(=O)c2ccccc2)CC1` [CBK264121], 94.7712.
